# Measured values published in PubChem BioAssay AID2147 (National Center for Advancing Translational Sciences (NCATS), 2009).
# The whole screen tested about 230,000 compounds, of which about 3,600 (1.6%) were called active. Inconclusive results, whose numbers are uncertain, are shown with a selection of clear calls. Calls come from the whole dose curve; as a rule, active = well fitted inhibition curve with a large enough effect (not every such curve was filed as active); inconclusive = small, poorly fitted or top-dose-only effect, or another doubt; inactive = no such curve, though single readings can be large or run the other way. Potencies beside an inconclusive call are fits to weak or partial responses and may not hold up.
# Target: Lysine-specific demethylase 4E (Homo sapiens) (UniProt B2RXH2)
# Test: qHTS Assay for Inhibitors of Human Jumonji Domain Containing 2E (JMJD2E)
# Settings: JMJD2E catalytic domain, FDH-coupled NADH fluorescence (FDH is formaldehyde dehydrogenase); series mostly up to 57.1 µM; activity change, negative = inhibition: at the top concentration
# Note: nearly all actives have a fitted effect of over 50% in size.
# Potency is the fitted concentration of half-maximal effect; tags give direction and shape of the fitted curve.
# 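Throughout, for activity change, negative = inhibition: 0% = wells with enzyme and -100% = buffer wells without enzyme.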
# Chain of UniProt B2RXH2 (B2RXH2 whole entry, looked up, the tested form may be a part): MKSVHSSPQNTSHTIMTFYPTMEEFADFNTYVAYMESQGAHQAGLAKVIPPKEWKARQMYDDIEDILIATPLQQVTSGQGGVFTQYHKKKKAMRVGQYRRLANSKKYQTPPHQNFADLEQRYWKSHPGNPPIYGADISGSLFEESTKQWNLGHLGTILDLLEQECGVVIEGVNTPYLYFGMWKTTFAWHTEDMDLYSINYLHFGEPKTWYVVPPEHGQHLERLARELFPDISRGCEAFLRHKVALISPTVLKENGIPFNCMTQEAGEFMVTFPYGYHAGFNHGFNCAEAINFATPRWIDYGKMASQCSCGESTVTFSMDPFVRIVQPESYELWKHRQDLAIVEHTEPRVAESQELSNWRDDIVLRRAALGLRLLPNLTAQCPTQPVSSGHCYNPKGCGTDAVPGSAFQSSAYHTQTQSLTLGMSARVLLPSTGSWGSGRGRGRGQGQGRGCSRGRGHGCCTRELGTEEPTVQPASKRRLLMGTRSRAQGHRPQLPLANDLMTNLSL
SMILES,Potency,"activity change, negative = inhibition"
Oc1ccc(-c2nc3ccccn3c2NCc2ccc3c(c2)OCO3)cc1,"inconclusive: 25.1 µM [inhibitor, partial curve]",–
Cc1ccc(Cn2ccc(NC(=O)c3cc(-c4ccc5c(c4)OCO5)on3)n2)cc1,"inconclusive: 4.47 µM [inhibitor, single point]",–
CCOc1ccc(N2C(=O)Nc3ccccc3C2(O)C(=O)NCc2ccc(F)cc2)cc1 (configuration not stated),–,inactive: -4.48%
CC1=C(C(=O)OC2CCCCC2)C(c2ccc(C)o2)C2=C(CC(C)(C)CC2=O)N1 (configuration not stated),"inconclusive: 8.91 µM [inhibitor, single point]",–
CCc1ccccc1NC(=S)N(CCCN1CCOCC1)Cc1cccs1,–,inactive: 0.0175%
CCOc1ccc(-c2nc(C#N)c(NCc3ccco3)o2)cc1,"inconclusive: 31.6 µM [inhibitor, partial curve]",–
CCN(CC)CCCNC(=O)c1cc(Sc2nnc(C)s2)nc2ccccc12,–,inactive: 10.7%
NC(=O)C1CCN(C(=O)COc2ccc(Nc3ccccc3)cc2)CC1,"inconclusive: 22.4 µM [inhibitor, single point]",–
CC(=O)c1cc2ccc(O)cc2oc1=O,"inconclusive: 31.6 µM [inhibitor, partial curve]",–
Cc1cc(N2CCCC2=O)ccc1S(=O)(=O)N1CCOCC1,"inconclusive: 0.794 µM [inhibitor, full curve, poor fit]",–
C=CCOC(=O)COc1ccc2c(C)c(CC)c(=O)oc2c1,"inconclusive: 31.6 µM [inhibitor, partial curve]",–
CCCCN=CC1=C(O)C(C(=O)OC)C(C)(C)CC1=O (configuration not stated),–,inactive: 0.491%
C/C(CC(=O)N1CCCC1)=N\NC(=O)c1cc2ccccc2cc1O,"inconclusive: 25.1 µM [inhibitor, single point]",–
Cc1cc[n+](-c2[nH]c(=O)sc2/C=N/NC(=O)c2ccccc2[O-])cc1C,"inconclusive: 22.4 µM [inhibitor, single point]",–
Cc1oc(C)c2c(=O)ccc3c(c12)OC(N)=C(C#N)C3c1ccccc1Cl (configuration not stated),active: 17.8 µM,–
Cc1cc(NC(=O)CSc2ccc3nnc(CCNC(=O)c4ccccc4)n3n2)no1,"inconclusive: 28.2 µM [inhibitor, partial curve]",–
CCOC(=O)c1ccc(NC(=S)NCCC2=CCCCC2)cc1,–,inactive: 6.48%
CCOC(=O)NC(NS(=O)(=O)c1ccccc1)(C(=O)OCC)C(F)(F)F (configuration not stated),–,inactive: -8.97%
CC(C)[C@@H](CC(=O)N[C@@H]1CCNC[C@H]1C(=O)N[C@H](CC(=O)N[C@@H](CCC(=O)O)CC(=O)O)Cc1c[nH]c2ccccc12)NC(=O)C[C@H](CO)NC(=O)[C@@H]1CCCC[C@H]1N,–,inactive: 5.87%
CC(=O)c1nnn(-c2ccc(Cl)cc2C#N)c1C,–,inactive: 2%
CC(C)OCCCNc1ncnc2c1[nH]c1ccc(F)cc12,"inconclusive: 28.2 µM [inhibitor, partial curve]",–

SMILES,Potency,"activity change, negative = inhibition"
O=c1c(OC2OC(CO)C(O)C(O)C2OC2OC(CO)C(O)C(O)C2O)c(-c2ccc(O)cc2)oc2cc(O)cc(O)c12 (configuration not stated),active: 28.2 µM,–
O=C(CN1C(=O)/C(=C\c2ccc(F)cc2)Oc2ccccc21)N1CCN(c2ccccn2)CC1,"inconclusive: 8.91 µM [inhibitor, partial curve]",–
O=C(N/N=C/c1cccc(C(F)(F)F)c1)c1cc2c(s1)-c1ccccc1CC2,"inconclusive: 8.91 µM [inhibitor, partial curve]",–
CCC12CN3CC(CC)(CN(C1)C3c1c(O)ccc3ccccc13)C2=O (configuration not stated),active: 12.6 µM,–
CC(=O)Nc1ccc2oc(-c3ccccc3)nc2c1,"inconclusive: 31.6 µM [inhibitor, partial curve]",–
Cc1ccc(NNC2CC(=O)N(c3cccc(Cl)c3)C2=O)cc1 (configuration not stated),"inconclusive: 39.8 µM [inhibitor, single point]",–
COc1ccc(/C=N/c2c(-c3ccco3)nc3ccccn23)cc1OC,"inconclusive: 2.82 µM [inhibitor, partial curve]",–
CN(CC(=O)NCc1ccco1)S(=O)(=O)c1ccc2c(c1)n(C)c(=O)c(=O)n2C,"inconclusive: 39.8 µM [inhibitor, single point]",–
CCc1nnc(NC(=O)CSc2nnc(CNC(=O)c3ccc(OC)c(OC)c3)o2)s1,"inconclusive: 39.8 µM [inhibitor, single point]",–
O=C(Nc1cc(Cl)c(O)c(Cl)c1)C1CCCO1 (configuration not stated),"inconclusive: 39.8 µM [inhibitor, single point]",–
CCC(C)NC(=O)CSc1nc2ccc(N3CCOCC3)cc2c(=O)n1CCc1ccccc1 (configuration not stated),"inconclusive: 35.5 µM [inhibitor, single point]",–
Nc1nn2c(C(F)(F)F)cc(=O)[nH]c2c1N=Nc1cccc(F)c1,"inconclusive: 39.8 µM [inhibitor, single point]",–
CCC(C)n1cnc2c(c1=O)c1nc3ccccc3nc1n2Cc1ccc(OC)cc1 (configuration not stated),"inconclusive: 22.4 µM [inhibitor, partial curve]",–
CSc1oc(-c2ccccc2)nc1S(=O)(=O)c1ccc(F)cc1,–,inactive: -25.8%
O=C(Cn1c(=O)c(=O)n(Cc2ccccc2)c2ccc(Cl)cc21)NCC1CCCO1 (configuration not stated),"inconclusive: 25.1 µM [inhibitor, partial curve]",–
CCOC(=O)c1c(C(F)(F)C(F)(F)C(F)(F)C(F)(F)F)n[nH]c1C,"inconclusive: 14.1 µM [inhibitor, partial curve]",–
Cc1cc(NCc2ccccn2)n2nc(C)c(-c3ccc(Cl)cc3)c2n1,"inconclusive: 31.6 µM [inhibitor, partial curve]",–
N#Cc1c(C(F)(F)F)cc(-c2ccc(F)cc2)[nH]c1=O,"inconclusive: 25.1 µM [inhibitor, partial curve]",–
COc1ccccc1-n1c(CNC(=O)c2cccc([N+](=O)[O-])c2C)n[nH]c1=S,"inconclusive: 39.8 µM [inhibitor, single point]",–
O=C(O)C1CCCN(S(=O)(=O)c2ccc(Br)s2)C1 (configuration not stated),–,inactive: 6.96%
O=C(O)C1Cc2[nH]cnc2C(c2ccc(F)cc2)N1 (configuration not stated),"inconclusive: 31.6 µM [inhibitor, single point]",–
